The list shows a part of the results. Rule as the data show it: active = 3.2 or more and inactive = the rest. The signal is at background level for most entries.
Assays:
Assay in all cases: enrichment score (SH2-bound / input frequency) (ratio); bacterial display of known human phosphotyrosine sites (pTyr-Var adds point mutants) read by sequencing; higher = stronger binding; tyrosines were phosphorylated by kinases first
Conditions in all cases: peptide library: pTyr-Var
SHP2 C-SH2 domain E139D = molecular target: SHP2 C-SH2 domain E139D
[1] = molecular target: SHP2 C-SH2 domain wild-type
SHP2 N-SH2 domain L43F = molecular target: SHP2 N-SH2 domain L43F
SHP2 N-SH2 domain T42A = molecular target: SHP2 N-SH2 domain T42A
SHP2 N-SH2 domain T52S = molecular target: SHP2 N-SH2 domain T52S
[2] = molecular target: SHP2 N-SH2 domain wild-type
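Also: displayed peptides selected on beads carrying the immobilized SH2 domain, with library peptides lacking any tyrosine serving as negative controls.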

Binder: PGIRMYQVQYN [LRFN1_Y454]
- enrichment score (SHP2 C-SH2 domain E139D): inactive: 2.58
- enrichment score [1]: inactive: 2.09
- enrichment score (SHP2 N-SH2 domain L43F): inactive: 2.78
- enrichment score (SHP2 N-SH2 domain T42A): inactive: 1.9
- enrichment score (SHP2 N-SH2 domain T52S): inactive: 2.68
- enrichment score [2]: inactive: 2.4

Binder: CQGSLYPSNHD [LRIG1_Y996]
- enrichment score (SHP2 C-SH2 domain E139D): inactive: 0.45
- enrichment score [1]: inactive: 0.628
- enrichment score (SHP2 N-SH2 domain L43F): inactive: 0.675
- enrichment score (SHP2 N-SH2 domain T42A): inactive: 0.596
- enrichment score (SHP2 N-SH2 domain T52S): inactive: 0.546
- enrichment score [2]: inactive: 0.586

Binder: NGSFRYVIISQ [LRP1B_Y1988]
- enrichment score (SHP2 C-SH2 domain E139D): inactive: 1.27
- enrichment score [1]: inactive: 2.43
- enrichment score (SHP2 N-SH2 domain L43F): inactive: 1.15
- enrichment score (SHP2 N-SH2 domain T42A): inactive: 2.17
- enrichment score (SHP2 N-SH2 domain T52S): inactive: 1.58
- enrichment score [2]: inactive: 1.1

Binder: RAEAQYLLVSN [LRIG1_Y1054]
- enrichment score (SHP2 C-SH2 domain E139D): inactive: 0.81
- enrichment score [1]: inactive: 0.892
- enrichment score (SHP2 N-SH2 domain L43F): inactive: 0.791
- enrichment score (SHP2 N-SH2 domain T42A): inactive: 0.687
- enrichment score (SHP2 N-SH2 domain T52S): inactive: 0.731
- enrichment score [2]: inactive: 0.679

Binder: RSSKMYPKTRS [LPL_Y329_L330P]
- enrichment score (SHP2 C-SH2 domain E139D): inactive: 0.496
- enrichment score [1]: inactive: 0.291
- enrichment score (SHP2 N-SH2 domain L43F): inactive: 0.25
- enrichment score (SHP2 N-SH2 domain T42A): inactive: 0.26
- enrichment score (SHP2 N-SH2 domain T52S): inactive: 0.531
- enrichment score [2]: inactive: 0.54

Binder: RSSKRYLKTRS [LPL_Y329_M328R]
- enrichment score (SHP2 C-SH2 domain E139D): inactive: 0.264
- enrichment score [1]: inactive: 0.267
- enrichment score (SHP2 N-SH2 domain L43F): inactive: 0.286
- enrichment score (SHP2 N-SH2 domain T42A): inactive: 0.329
- enrichment score (SHP2 N-SH2 domain T52S): inactive: 0.205
- enrichment score [2]: inactive: 0.241

Binder: ATARPYRPFII [LRP5_Y1528_YF]
- enrichment score (SHP2 C-SH2 domain E139D): inactive: 1.05
- enrichment score [1]: inactive: 0.838
- enrichment score (SHP2 N-SH2 domain L43F): inactive: 1.11
- enrichment score (SHP2 N-SH2 domain T42A): inactive: 0.986
- enrichment score (SHP2 N-SH2 domain T52S): inactive: 1.04
- enrichment score [2]: inactive: 1.12

Binder: RSSKMYFKTRS [LPL_Y329_L330F]
- enrichment score (SHP2 C-SH2 domain E139D): inactive: 0.52
- enrichment score [1]: inactive: 0.413
- enrichment score (SHP2 N-SH2 domain L43F): inactive: 0.545
- enrichment score (SHP2 N-SH2 domain T42A): inactive: 0.518
- enrichment score (SHP2 N-SH2 domain T52S): inactive: 0.446
- enrichment score [2]: inactive: 0.572

Binder: LKKLEYLNLPL [LRRC6_Y70_A74P]
- enrichment score (SHP2 C-SH2 domain E139D): inactive: 1.68
- enrichment score [1]: inactive: 2.13
- enrichment score (SHP2 N-SH2 domain L43F): active: 3.55
- enrichment score (SHP2 N-SH2 domain T42A): active: 7.67
- enrichment score (SHP2 N-SH2 domain T52S): active: 4.79
- enrichment score [2]: inactive: 1.93

Binder: KDAGDYKCKAK [LRIT3_Y326]
- enrichment score (SHP2 C-SH2 domain E139D): inactive: 0.816
- enrichment score [1]: inactive: 0.806
- enrichment score (SHP2 N-SH2 domain L43F): inactive: 0.938
- enrichment score (SHP2 N-SH2 domain T42A): inactive: 0.661
- enrichment score (SHP2 N-SH2 domain T52S): inactive: 0.649
- enrichment score [2]: inactive: 1.06

Binder: MYQVQYNSSVD [LRFN1_Y458]
- enrichment score (SHP2 C-SH2 domain E139D): inactive: 0.98
- enrichment score [1]: inactive: 0.888
- enrichment score (SHP2 N-SH2 domain L43F): inactive: 0.923
- enrichment score (SHP2 N-SH2 domain T42A): inactive: 0.907
- enrichment score (SHP2 N-SH2 domain T52S): inactive: 0.962
- enrichment score [2]: inactive: 1.11

Binder: KDAGDYKFKAK [LRIT3_Y326_C328Y_YF]
- enrichment score (SHP2 C-SH2 domain E139D): inactive: 0.567
- enrichment score [1]: inactive: 0.467
- enrichment score (SHP2 N-SH2 domain L43F): inactive: 0.66
- enrichment score (SHP2 N-SH2 domain T42A): inactive: 0.488
- enrichment score (SHP2 N-SH2 domain T52S): inactive: 0.479
- enrichment score [2]: inactive: 0.512

Binder: TLARLYHRDST [LRIG1_Y1029_P1031R]
- enrichment score (SHP2 C-SH2 domain E139D): inactive: 0.68
- enrichment score [1]: inactive: 0.678
- enrichment score (SHP2 N-SH2 domain L43F): inactive: 0.507
- enrichment score (SHP2 N-SH2 domain T42A): inactive: 0.551
- enrichment score (SHP2 N-SH2 domain T52S): inactive: 0.697
- enrichment score [2]: inactive: 0.896

Binder: MFRVQYNSSVD [LRFN1_Y458_Q455R_YF]
- enrichment score (SHP2 C-SH2 domain E139D): inactive: 1.43
- enrichment score [1]: inactive: 1.36
- enrichment score (SHP2 N-SH2 domain L43F): inactive: 1.75
- enrichment score (SHP2 N-SH2 domain T42A): inactive: 1.76
- enrichment score (SHP2 N-SH2 domain T52S): inactive: 1.73
- enrichment score [2]: inactive: 1.56

Binder: NSNAAYEQSHF [LRIF1_Y714]
- enrichment score (SHP2 C-SH2 domain E139D): inactive: 0.539
- enrichment score [1]: inactive: 0.598
- enrichment score (SHP2 N-SH2 domain L43F): inactive: 0.586
- enrichment score (SHP2 N-SH2 domain T42A): inactive: 0.573
- enrichment score (SHP2 N-SH2 domain T52S): inactive: 0.572
- enrichment score [2]: inactive: 0.601

Binder: KDAGDYKYKAK [LRIT3_Y326_C328Y]
- enrichment score (SHP2 C-SH2 domain E139D): inactive: 0.356
- enrichment score [1]: inactive: 0.726
- enrichment score (SHP2 N-SH2 domain L43F): inactive: 0.565
- enrichment score (SHP2 N-SH2 domain T42A): inactive: 0.606
- enrichment score (SHP2 N-SH2 domain T52S): inactive: 0.504
- enrichment score [2]: inactive: 0.61

Binder: VCDSDYSASRW [LRP5_Y1552]
- enrichment score (SHP2 C-SH2 domain E139D): inactive: 0.457
- enrichment score [1]: inactive: 0.578
- enrichment score (SHP2 N-SH2 domain L43F): inactive: 0.57
- enrichment score (SHP2 N-SH2 domain T42A): inactive: 0.58
- enrichment score (SHP2 N-SH2 domain T52S): inactive: 0.61
- enrichment score [2]: inactive: 0.605

Binder: ATVRPYRPFII [LRP5_Y1528_A1525V_YF]
- enrichment score (SHP2 C-SH2 domain E139D): inactive: 1
- enrichment score [1]: inactive: 0.892
- enrichment score (SHP2 N-SH2 domain L43F): inactive: 0.732
- enrichment score (SHP2 N-SH2 domain T42A): inactive: 0.703
- enrichment score (SHP2 N-SH2 domain T52S): inactive: 0.679
- enrichment score [2]: inactive: 0.877

Binder: RTESQYQENRG [LRCH3_Y354_R350T]
- enrichment score (SHP2 C-SH2 domain E139D): inactive: 0.481
- enrichment score [1]: inactive: 2.69
- enrichment score (SHP2 N-SH2 domain L43F): inactive: 0.545
- enrichment score (SHP2 N-SH2 domain T42A): inactive: 0.416
- enrichment score (SHP2 N-SH2 domain T52S): inactive: 0.479
- enrichment score [2]: inactive: 0.817

Source: the supplement of paper PMC10369915
